# Measured values reported in the supplement of paper PMC4967469.
# The IC50 comes from the fitted curve, where viability falls to half of the control; a limit (>, <) means that the fit lies beyond the doses tested. The AUC spans the tested range (256-fold, ending at the top dose) of the same fit; the more sensitive the line, the further below 1. For some assays here: The top dose, if marked as inferred, comes from the curve model; the source does not state it.
# Experiments:
# Test in all cases: Viability of human cancer cell lines after 72 h of drug (GDSC screen)
# [1] = compound: CC(=O)Nc1nc(C)c(-c2ccc(Cl)c(S(=O)(=O)NCCO)c2)s1 [PIK-93]; settings: top dose 20 µM
# Procedure: (§1)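 Human cancer cell lines in 384-well plates, medium with 10% serum, drug for 72 h over a 256-fold dose range (nine 2-fold or five 4-fold steps up to the top dose). Adherent lines were fixed and stained with the nucleic acid dye Syto60, suspension lines read with resazurin; signal relative to control wells, capped at 0 and 100%. One two-parameter sigmoid per drug and line, fitted in a mixed model over all curves with the slope shared within a line.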
# [2] = compound: Cn1cc(/C=C2\C(=O)Nc3cccnc32)c2ccccc21 [GW 441756]; settings: top dose 2 µM; top dose inferred
# Procedure: as §1
# [3] = compound: CC1(C)CCC(c2ccc(Cl)cc2)=C(CN2CCN(c3ccc(C(=O)NS(=O)(=O)c4ccc(N[C@H](CCN5CCOCC5)CSc5ccccc5)c(S(=O)(=O)C(F)(F)F)c4)cc3)CC2)C1 [ABT-263]; settings: top dose 2 µM; top dose inferred
# Procedure: as §1
# [4] = compound: COc1cc(/C=C/C(=O)N2CCC=CC2=O)cc(OC)c1OC [piperlongumine]; settings: top dose 10 µM
# Procedure: as §1
Cell Line,AUC [1],IC50 [1] [nM],AUC [2],IC50 [2] [nM],AUC [3],IC50 [3] [nM],AUC [4],IC50 [4] [nM]
"HT-1197 (bladder, adherent)",0.956,> 20000,0.985,> 2000,0.964,> 2000,0.804,6140
"H2795 (mesothelioma, adherent)",0.682,3990,0.885,> 2000,0.97,> 2000,0.836,6480
"QGP-1 (pancreas, adherent)",0.824,> 20000,0.974,> 2000,0.961,> 2000,0.943,> 10000
"DoTc2-4510 (cervix, adherent)",0.948,> 20000,0.962,> 2000,0.872,1740,0.8,4560
"EFO-21 (ovary, adherent)",0.85,> 20000,0.98,> 2000,0.966,> 2000,0.892,> 10000
"NCI-H520 (lung squamous cell carcinoma, adherent)",0.521,1430,0.971,> 2000,0.987,> 2000,0.963,> 10000
"YKG-1 (glioma, adherent)",0.86,17100,0.987,> 2000,0.977,> 2000,0.717,2590
"SW1573 (lung adenocarcinoma, adherent)",0.979,> 20000,0.973,> 2000,0.966,> 2000,0.757,4580
"NCI-H2110 (non-small cell lung carcinoma, adherent)",0.638,3040,0.973,> 2000,0.976,> 2000,0.844,7460
"NCI-H1651 (lung adenocarcinoma, adherent)",0.979,> 20000,0.983,> 2000,0.979,> 2000,0.804,5450
"BICR22 (head and neck, adherent)",0.969,> 20000,0.939,> 2000,0.772,893,0.797,5520
"LC-1-sq (lung squamous cell carcinoma, adherent)",0.898,> 20000,0.943,> 2000,0.873,> 2000,0.967,> 10000
"CAL-27 (head and neck, adherent)",0.881,> 20000,0.972,> 2000,0.96,> 2000,0.713,2530
"KYSE-520 (oesophagus, adherent)",0.87,> 20000,0.945,> 2000,0.95,> 2000,0.774,5340
"KU-19-19 (bladder, adherent)",0.987,> 20000,0.968,> 2000,0.984,> 2000,0.609,1250
"LoVo (large intestine, adherent)",0.921,> 20000,0.975,> 2000,0.93,> 2000,0.815,5570
"DK-MG (glioma, adherent)",0.818,19300,0.973,> 2000,0.966,> 2000,0.776,6190
"ECC10 (stomach, suspension)",0.912,> 20000,0.979,> 2000,0.546,168,0.762,3730
"CAL-120 (breast, adherent)",0.723,6550,0.978,> 2000,0.796,1260,0.688,2480
"PANC-02-03 (pancreas, adherent)",0.626,2990,0.971,> 2000,0.933,> 2000,0.79,5460
"G-402 (soft tissue, adherent)",0.816,16000,0.942,> 2000,0.923,> 2000,0.687,2520
"Hs683 (glioma, adherent)",0.896,> 20000,0.983,> 2000,0.76,713,0.904,> 10000
"COLO-783 (melanoma, adherent)",0.952,> 20000,0.919,> 2000,0.581,207,0.985,> 10000
"SiHa (cervix, adherent)",0.987,> 20000,0.888,> 2000,0.982,> 2000,0.709,2690
"JHH-2 (liver, adherent)",0.857,18200,0.986,> 2000,0.95,> 2000,0.723,2840

Cell Line,AUC [1],IC50 [1] [nM],AUC [2],IC50 [2] [nM],AUC [3],IC50 [3] [nM],AUC [4],IC50 [4] [nM]
"JHU-011 (head and neck, adherent)",0.821,11400,0.941,> 2000,0.931,> 2000,0.813,5270
"SISO (cervix, adherent)",0.882,19600,0.967,> 2000,0.975,> 2000,0.642,1520
"HT-1080 (fibrosarcoma, adherent)",0.962,> 20000,0.989,> 2000,0.949,> 2000,0.623,1310
"HT-1376 (bladder, adherent)",0.985,> 20000,0.969,> 2000,0.979,> 2000,0.746,3670
"LN-18 (glioma, adherent)",0.969,> 20000,0.949,> 2000,0.951,> 2000,0.879,6960
"PEO1 (ovary, adherent)",0.812,11300,0.85,1610,0.953,> 2000,0.754,3490
"PCI-4B (head and neck, adherent)",0.865,16200,0.972,> 2000,0.967,> 2000,0.605,1200
"PL4 (pancreas, adherent)",0.936,> 20000,0.974,> 2000,0.905,> 2000,0.758,3590
"SKN-3 (head and neck, adherent)",0.916,> 20000,0.967,> 2000,0.941,> 2000,0.696,2480
"PCI-6A (head and neck, adherent)",0.743,6090,0.98,> 2000,0.886,> 2000,0.977,> 10000
"K2 (melanoma, adherent)",0.884,> 20000,0.823,1660,0.943,> 2000,0.785,5670
"T47D (breast, adherent)",0.439,783,0.893,> 2000,0.971,> 2000,0.755,5190
"SK-OV-3 (ovary, adherent)",0.76,8770,0.958,> 2000,0.963,> 2000,0.834,8960
"NCI-H1755 (lung adenocarcinoma, adherent)",0.878,> 20000,0.969,> 2000,0.981,> 2000,0.857,> 10000
"CS1 (bone, adherent)",0.68,4250,0.938,> 2000,0.792,1030,0.7,2460
"PC-14 (lung adenocarcinoma, adherent)",0.899,> 20000,0.99,> 2000,0.987,> 2000,0.834,5540
"SK-MEL-3 (melanoma, adherent)",0.781,9710,0.961,> 2000,0.984,> 2000,0.933,> 10000
"T84 (large intestine, adherent)",0.86,17200,0.98,> 2000,0.971,> 2000,0.837,6840
"G-292 Clone A141B1 (osteosarcoma, adherent)",0.776,13500,0.957,> 2000,0.871,> 2000,0.789,7770
"T-T (oesophagus, adherent)",0.831,12600,0.973,> 2000,0.912,> 2000,0.787,4340
"EGI-1 (biliary tract, adherent)",0.849,> 20000,0.941,> 2000,0.95,> 2000,0.81,7350
"DOV13 (ovary, adherent)",0.96,> 20000,0.953,> 2000,0.908,> 2000,0.656,1810
"HeLa (cervix, adherent)",0.945,> 20000,0.943,> 2000,0.986,> 2000,0.635,1440
"TGBC11TKB (stomach, adherent)",0.846,12100,0.986,> 2000,0.902,> 2000,0.855,6540
